PubChem BioAssay AID1963576 (National Center for Advancing Translational Sciences (NCATS), 2024)
About 60 (0.1%) of roughly 46,000 compounds were called active. Another 3% or so got no clear call; they are omitted. The call rests on the fitted dose curve; in most records, active means well fitted inhibition curve with a large enough effect; inconclusive means small, poorly fitted or top-dose-only effect; inactive means no such curve, though single readings can be large or run the other way. This is one part of the list.

Assay: Primary qHTS assay for Inhibitors of ovarian cancer metastasis using an organotypic tumor microenvironment (TME) model. Further: nearly all actives have a fitted effect of over 65% in size.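 On activity change, negative = inhibition: plate controls were DMSO wells for no effect and tomatine positive control wells for full effect.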
Conditions: SKOV3ip1-GFP adhesion/invasion on 3D omental model, fluorescence; series mostly up to 45.8 µM; activity change, negative = inhibition: at the top concentration
How it was run: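 qHTS, 4-pt dose (0.36-46 umol/L); SKOV3ip1-GFP, 1,200 cells/well, no FBS; primary omental fibroblast/mesothelial co-culture 48 h pre-grown; 2 h RT + 16 h 37 C; PBS wash, 4% PFA; GFP count 488/509 nm.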

| Structure (SMILES) | outcome | activity change, negative = inhibition |
| --- | --- | --- |
| COc1cccc2c1cc1c(=O)n(CC(=O)NC3CCCCC3)nc(C)n12 | inactive |  |
| COC(=O)Cn1nc(C)c2c(C)n(-c3ccccc3)nc2c1=O |  | inactive: -0.992% |
| CCCN1C(=O)c2[nH]nc(-c3ccccc3O)c2C1c1ccc(OCc2ccccc2)c(OC)c1 (stereo unspecified) |  | inactive: 8.51% |
| CN1CCc2c(n(Cc3ccc(C(=O)NO)cc3)c3ccccc23)C1 |  | inactive: -8.14% |
| Cc1nn(Cc2ccccc2Cl)c(C)c1NC(=O)c1cc(C(C)C)on1 |  | inactive: -0.939% |
| CCC1CCCCN1C(=O)Cn1c(=O)oc2cc(S(=O)(=O)N3CCCCC3)ccc21 (stereo unspecified) |  | inactive: 0.842% |
| O=C(NCCc1ccccc1)c1sc2ncccc2c1-n1cccc1 |  | inactive: -0.475% |
| CCCc1cnc2c(c1SCC(=O)N1CCC(C)CC1)c(=O)n(C)c(=O)n2C |  | inactive: 11% |
| CCOC(=O)c1ccc(NC(=O)Cn2c(=O)cc(C)c3c(C)nn(-c4cccc(F)c4)c32)cc1 |  | inactive: -5.9% |
| Cc1ccc(NC(=O)c2cc3cc(C)ccc3n2C)cc1 |  | inactive: 2.17% |
| NC(=O)CSc1oc(-c2ccco2)nc1S(=O)(=O)c1ccc(Cl)cc1 |  | inactive: -8.24% |
| O=C(Nc1nc2n(n1)C(c1ccc(F)cc1)C=C(c1ccccc1)N2)c1ccc(Cl)cc1 (stereo unspecified) |  | inactive: 4.06% |
| Cc1ccc(NC(=O)C(Cc2ccccc2)NS(=O)(=O)c2ccc3c(c2)oc(=O)n3C)cc1F (stereo unspecified) |  | inactive: -4.7% |
| O=C(CSc1nncn2c1cc1sccc12)Nc1ccc(Br)cc1F |  | inactive: -12.7% |
| CCOC(=O)c1c(C)oc2nc(C)nc(NCc3ccc(OC)cc3OC)c12 |  | inactive: -2.66% |
| CCc1ccccc1NC(=O)c1sc2nc3c(cc2c1N)CN(Cc1ccccc1)CC3 |  | inactive: -16.4% |
| O=C(Nc1cc(C(F)(F)F)ccc1Cl)c1nc2ccccc2nc1N1CCCCC1 |  | inactive: -1.94% |
| CCCCNC(=O)C1CCC(Cn2c(=O)c3sccc3n(CC(=O)N3CCCC3)c2=O)CC1 (stereo unspecified) |  | inactive: -6.66% |
| Cc1cc(C)cc(NC(=O)C(=O)NCC(c2cccnc2)N2CCc3ccccc3C2)c1 (stereo unspecified) | inactive |  |
| Clc1cccc(-n2ncc3c(N4CCC(Cc5ccccc5)CC4)ncnc32)c1 |  | inactive: 3.29% |
| CCc1ccc(NC(=O)CCn2nc(C)c(S(=O)(=O)N3CCCCC3)c2C)cc1 |  | inactive: -6.9% |

| Structure (SMILES) | outcome | activity change, negative = inhibition |
| --- | --- | --- |
| O=C(Cn1c(=O)nc(-c2ccccc2)c2ccccc21)NCc1ccc(Cl)cc1 |  | inactive: 0.358% |
| COc1cc(C2C(C(=O)Nc3ccccc3C)=C(C)Nc3ncnn32)ccc1OCC(N)=O (stereo unspecified) |  | inactive: -6.33% |
| O=C(NCC(c1ccc2c(c1)OCO2)N1CCOCC1)c1cccc(Cl)c1 (stereo unspecified) |  | inactive: -2.66% |
| CCOC(=O)c1ccccc1NC(=O)Cn1c(=O)n(-c2cccc(C)c2)c(=O)c2c1c1cc(C)ccc1n2C |  | inactive: -15.2% |
| COc1ccc2c(C)cc(SCC(=O)Nc3nsc(-c4ccccc4C)n3)nc2c1 |  | inactive: -9.52% |
| COc1cccc(N2CCN(S(=O)(=O)c3ccc(-n4cnnn4)cc3)CC2)c1 |  | inactive: 1.12% |
| CCOc1ccc(Cn2c(CNS(=O)(=O)c3ccc(Cl)s3)nc3cccnc32)cc1 | inactive |  |
| CCOc1ccccc1NC(=O)C1CCN(S(=O)(=O)c2ccc3c(c2)CC(C)N3C(C)=O)CC1 (stereo unspecified) |  | inactive: 2.39% |
| O=C(NCc1ccc(Cl)cc1)C(=O)NCC(c1cccs1)S(=O)(=O)c1cccs1 (stereo unspecified) |  | inactive: -3.76% |
| Nc1ccc(N2CCN(c3ncc(C(F)(F)F)cc3Cl)CC2)c(C(F)(F)F)c1 |  | inactive: 6.55% |
| O=C(CCn1cnnn1)Nc1ccc(F)cc1 |  | inactive: 27.8% |
| Cc1oc(C)c2c(=O)cc(-c3ccc4c(c3)OCO4)cc(OC(=O)c3cccc(Br)c3)c12 |  | inactive: 5.45% |
| COc1ccc(Nc2cc(C(=O)NCCCN3CCN(c4ccc(OC)cc4)CC3)c3ccccc3n2)cc1 | inactive |  |
| COCC(=O)NCc1nc2cccnc2n1Cc1ccc(F)cc1 |  | inactive: -1.53% |
| CN(c1ccccc1)S(=O)(=O)c1ccc(NC(=O)c2cc(=O)c3ccccc3o2)cc1 |  | inactive: -1.58% |
| Cc1ccc(NC(=O)CSc2ccc(-c3cccs3)nn2)cc1Cl |  | inactive: 0.391% |
| Cc1noc(-c2ccc(N3CCCCC3)c([N+](=O)[O-])c2)n1 |  | inactive: -18.9% |
| Cc1cc(NC(=O)c2cccc(Cl)c2)ccc1-c1cc2ccccc2oc1=O |  | inactive: 5.03% |
| Cc1ccc(Cn2c(CNS(=O)(=O)c3ccc(F)c(Cl)c3)nc3cccnc32)cc1 |  | inactive: 2.8% |
| COc1ccc(-n2ncc(C(=O)NCCc3ccsc3)c2C2CCN(C(=O)OC(C)(C)C)CC2)cc1 |  | inactive: -28.6% |
| COc1cc2c(cc1OC)C(COc1ccccc1OC)N(C(=O)COc1ccc(Cl)cc1)CC2 (stereo unspecified) |  | inactive: 11.8% |

| Structure (SMILES) | outcome | activity change, negative = inhibition |
| --- | --- | --- |
| Cc1ccc(CCNC(=O)c2ccc3c(c2)nc2n3CCC(C)C2)cc1 (stereo unspecified) |  | inactive: -3.65% |
| COc1ccc(OC)c(CNC(=O)Cc2ccc(NC(=O)N3CCSc4ncccc43)cc2)c1 |  | inactive: 0.161% |
| O=C(C1CCN(c2ncnc3c2nc2n3CCCCC2)CC1)N1CCN(c2cccc(Cl)c2)CC1 |  | inactive: -29.8% |
| O=C1CS(=O)(=O)C2(C(=O)N(Cc3ccccc3)c3ccccc32)N1c1ccccc1 (stereo unspecified) |  | inactive: 7.29% |
| Cc1cn[nH]c1 |  | inactive: 2.09% |
| Cc1cc(F)ccc1NS(=O)(=O)c1ccc(-n2cccn2)cc1 | inactive |  |
| Cc1ccc(CNS(=O)(=O)c2ccc3[nH]c4c(c3c2)CCCC4)cc1 |  | inactive: -2.54% |
| CCCCc1nn2c(=O)cc(COC(=O)c3ccc(NC(=O)c4ccccc4C)cc3)nc2s1 |  | inactive: 2.85% |
| CCOC(=O)C1(C)C=C(Nc2cccc(C(=O)O)c2)C(=O)N1c1cccc(C(=O)O)c1 (stereo unspecified) |  | inactive: -2.63% |
| COc1ccc(-c2noc(-c3ccc(N4CCN(c5ccccc5)CC4)c([N+](=O)[O-])c3)n2)cc1OC |  | inactive: -5.33% |
| COc1cccc(CNC(=O)C2CCCCN2S(=O)(=O)c2ccc(F)cc2)c1 (stereo unspecified) | inactive |  |
| Cc1cc(C)n(CCc2nc3c4ccccc4nc(N4CCN(c5ccccc5)CC4)n3n2)n1 |  | inactive: -8.63% |
| N#Cc1ccc(NC(=O)c2cc(-c3cccc(Cl)c3)on2)cc1 | inactive |  |
| CNC(=O)c1ccc(CSc2nc3cccnc3n2Cc2cccc(F)c2)cc1 |  | inactive: -4.88% |
| CCc1ccc(-c2nc(SCC(=O)NCC3CCCO3)c(-c3ccc(F)cc3)[nH]2)cc1 (stereo unspecified) |  | inactive: -3.27% |
| O=S(=O)(Nc1ccc(-c2ccc(N3CCCCCC3)nn2)cc1)c1cccc(C(F)(F)F)c1 |  | inactive: 5.16% |
| COc1ccc(CCNc2nc(SCc3ccc(F)cc3)nc3ccccc23)cc1OC | inactive |  |
| CCc1nn(CC(=O)N2CCN(c3cc(C)ccc3C)CC2)c(=O)c2cc3occc3n12 |  | inactive: 44.3% |
| CC1=C(c2ccc(C)c(C)c2)S(=O)(=O)N=C1N1CCC(C(=O)Nc2ccc(Cl)cc2)CC1 | inactive |  |
